Results published in the supplement of paper PMC10369915.
This is one part of the list. Rule as the data show it: active = 3.2 or more and inactive = the rest. The signal is at background level for most entries.

Experiments:
Assay in all cases: enrichment score (SH2-bound / input frequency) (ratio); bacterial display of known human phosphotyrosine sites (pTyr-Var adds point mutants) read by sequencing; higher = stronger binding; tyrosines were phosphorylated by kinases first
Conditions in all cases: peptide library: Human pTyr
[1] = target: SHP2 C-SH2 domain E139D
[2] = target: SHP2 C-SH2 domain wild-type
[3] = target: SHP2 N-SH2 domain L43F
[4] = target: SHP2 N-SH2 domain T42A
[5] = target: SHP2 N-SH2 domain T52S
[6] = target: SHP2 N-SH2 domain wild-type

Measured: enrichment score
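Also: displayed peptides selected on beads carrying the immobilized SH2 domain, with library peptides lacking any tyrosine serving as negative controls.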

ASHVDNEYSQPPRNS [CD5_HUMAN_453]
inactive: [1] 0.655 | [2] 0.555 | [3] 0.642 | [4] 0.601 | [5] 0.672 | [6] 0.692

DSTDNDDYDDISAAG [CD6_HUMAN_662]
inactive: [1] 1.35 | [2] 1.08 | [3] 1.48 | [4] 1.05 | [5] 1.33 | [6] 1.35

NLDDCSMYEDISRGL [CD79A_HUMAN_199]
inactive: [1] 1.3 | [2] 0.833 | [3] 1.1 | [4] 1.02 | [5] 0.985 | [6] 1.09

SRGLQGTYQDVGSLN [CD79A_HUMAN_210]
inactive: [1] 0.845 | [2] 0.646 | [3] 0.61 | [4] 0.574 | [5] 0.599 | [6] 0.703

GMEEDHTYEGLDIDQ [CD79B_HUMAN_196]
inactive: [1] 1.24 | [2] 1.27 | [3] 1.2 | [4] 1.13 | [5] 1.17 | [6] 1.47

DIDQTATYEDIVTLR [CD79B_HUMAN_207]
inactive: [1] 0.909 | [2] 0.697 | [3] 0.953 | [4] 1.16 | [5] 0.73 | [6] 0.789

VSQIAVAYHNIRDID [CDC23_HUMAN_273]
inactive: [1] 0.848 | [2] 1.18 | [3] 0.746 | [4] 0.531 | [5] 0.64 | [6] 0.79

DTAGQEDYDRLRPLS [CDC42_HUMAN_64]
inactive: [1] 0.54 | [2] 0.487 | [3] 0.828 | [4] 0.496 | [5] 0.536 | [6] 0.575

DDLEVPAYEDIFRDE [CDC45_HUMAN_130]
inactive: [1] 1.57 | [2] 1.25 | [3] 1 | [4] 1.6 | [5] 1.08 | [6] 1.39

KQPIPAAYNRADQER [CDC73_HUMAN_290_YA]
inactive: [1] 0.975 | [2] 1.09 | [3] 0.787 | [4] 0.945 | [5] 1.11 | [6] 1.14

IPAAYNRYDQERFKG [CDC73_HUMAN_293]
inactive: [1] 0.827 | [2] 0.734 | [3] 0.858 | [4] 0.766 | [5] 0.854 | [6] 0.961

KDNDSHVYAVIEDTM [CDCP1_HUMAN_734]
inactive: [1] 1.13 | [2] 1.36 | [3] 0.897 | [4] 1.14 | [5] 0.896 | [6] 0.871

SSGGEQDYDYLNDWG [CDH2_HUMAN_884]
inactive: [1] 0.723 | [2] 0.628 | [3] 0.781 | [4] 0.65 | [5] 0.655 | [6] 0.848

GGEQDYDYLNDWGPR [CDH2_HUMAN_886]
inactive: [1] 0.602 | [2] 0.45 | [3] 0.794 | [4] 0.57 | [5] 0.683 | [6] 0.691

GGEQDADYLNDWGPR [CDH2_HUMAN_886_YA]
inactive: [1] 0.569 | [2] 0.463 | [3] 0.568 | [4] 0.617 | [5] 0.643 | [6] 0.619

EKIGEGTYGVVAKGR [CDK1_HUMAN_15_YA]
inactive: [1] 0.832 | [2] 0.672 | [3] 0.716 | [4] 0.664 | [5] 1.07 | [6] 0.789

EGTYGVVYKGRHKTT [CDK1_HUMAN_19]
inactive: [1] 0.788 | [2] 0.578 | [3] 0.58 | [4] 0.693 | [5] 0.861 | [6] 0.664

VSRSAAEYLLSSLIN [ABL2_HUMAN_185]
inactive: [1] 1.04 | [2] 0.929 | [3] 0.954 | [4] 0.845 | [5] 1.16 | [6] 1.1

EGTYGVVYKARNKLT [CDK2_HUMAN_19]
inactive: [1] 0.984 | [2] 0.547 | [3] 0.589 | [4] 0.576 | [5] 0.559 | [6] 0.767

EKIGEGTYGTVFKAK [CDK5_HUMAN_15]
inactive: [1] 0.786 | [2] 0.674 | [3] 0.617 | [4] 0.915 | [5] 0.84 | [6] 0.99

NNANYTEYVATRWYR [CDKL5_HUMAN_171]
inactive: [1] 1.89 | [2] 1.47 | [3] 1.79 | [4] 1.42 | [5] 2.06 | [6] 1.58

GSLPEFAYRPPRPPK [CDN1B_HUMAN_89_YA]
inactive: [1] 0.572 | [2] 0.615 | [3] 0.526 | [4] 0.513 | [5] 0.579 | [6] 0.765

NKMNEVTYSTLNFEA [CEAM1_HUMAN_493]
active: [1] 3.85 | [2] 6.81 | [3] 12.7 | [4] 11.6 | [5] 7.26
inactive: [6] 1.68

AASAGRIYAGGGTGS [CELR3_HUMAN_3051_YA]
inactive: [1] 0.621 | [2] 0.533 | [3] 0.64 | [4] 0.534 | [5] 0.397 | [6] 0.485

TPLTPSQYYSGSKYE [CENPF_HUMAN_158]
inactive: [1] 0.666 | [2] 0.567 | [3] 1.07 | [4] 0.563 | [5] 0.501 | [6] 0.652

GLVTTLHYPAPKCNK [ABL2_HUMAN_261]
inactive: [1] 1.33 | [2] 0.949 | [3] 0.896 | [4] 1.05 | [5] 1.1 | [6] 1.3

TKKTEDLYWRQQSLK [CG031_HUMAN_442]
inactive: [1] 0.722 | [2] 1.06 | [3] 1.22 | [4] 1.02 | [5] 1.09 | [6] 1.23

SIDLKDKYKNIGAKL [CH60_HUMAN_90]
inactive: [1] 1.15 | [2] 1.08 | [3] 0.96 | [4] 0.667 | [5] 0.994 | [6] 1.45

KMTTNPIYEHIGYAT [CHN2_HUMAN_153]
inactive: [1] 0.772 | [2] 0.7 | [3] 0.719 | [4] 0.499 | [5] 0.714 | [6] 0.774

KCNKPTVYGVSPIHD [ABL2_HUMAN_272]
inactive: [1] 0.946 | [2] 0.966 | [3] 0.818 | [4] 0.97 | [5] 0.974 | [6] 0.964

KNAEDCLYELPENIR [CI078_HUMAN_147]
inactive: [1] 1.05 | [2] 0.722 | [3] 0.88 | [4] 0.827 | [5] 0.953 | [6] 0.872

ANVSTTPYLQSVKKK [CKAP2_HUMAN_599_YA]
inactive: [1] 1.2 | [2] 0.86 | [3] 0.905 | [4] 1.06 | [5] 1.04 | [6] 1.25

ATATKVVYSAPRSTG [CLD3_HUMAN_198_YA]
active: [2] 5.55
inactive: [1] 2.25 | [3] 0.859 | [4] 1.05 | [5] 0.594 | [6] 0.876

VVGAMQLYSVDRKVS [CLH1_HUMAN_184]
inactive: [1] 0.641 | [2] 0.478 | [3] 0.495 | [4] 0.527 | [5] 0.493 | [6] 0.491

CFLRENAYYDSSVVG [CLH2_HUMAN_899]
inactive: [1] 1.16 | [2] 1.11 | [3] 1.24 | [4] 1.31 | [5] 1.29 | [6] 1.31

GGQYGEVYVGVWKKY [ABL2_HUMAN_303]
inactive: [1] 0.784 | [2] 0.653 | [3] 0.793 | [4] 0.883 | [5] 0.761 | [6] 0.86
